Data published in the RNAGym collection of RNA variant scans (doi:10.7554/elife.90254).
Read counts are not given, so values of variants with three or more changes are uncertain.

B1: LINE1-mini (parent)
chain: GGCAGAGCUCAACACAGCGUGGCAAAGUGGCUGUGGCUAGACUGCC

Variants of: B1
Assay: self-cleavage, relative activity (ratio to wild type); higher = more cleavage; in vitro, sequencing; the parent is a self-cleaving ribozyme

Variant	self-cleavage
C15A G21C G29A G36A	0.02
C15A C18A U34A C37U	0
C15A G21U G30U C46A	0.03
C15A U20A U28A C45U	0.14
C15A C23A G35C	0.05
A14U G21A C23A U43A C46A	0.03
A14U A16G U34C	0
C15A A25C C45A	0.02
A14U A16C G19A	0.1
C15A G36U C42U U43C C46A	0.03
C15A A24G U34A	0.09
A14U C18G G36U	0.06
C15A A16U G17C C42G U43C	0.01
C15A C23U A25C G33C G35U C37U C42U	0
A14U C15A U20G G33U C46A	0.04
C15A A24C A26U A39C	0.48
C15A G17A G19A	0.1
C15A U20C A24G A39G	0.02
A14U C23U C31G	0.05
A14U A16C A26U G33C	0.01
C15A G22A C23U A24U G40C	0.04
A14U G22A U38C	0.09
C15A A24G G27A	0.04
C15A A26C G30A C45A	0.01

Variant	self-cleavage
C15A G19U G30U	0.08
A14U C15A U32A	0.05
A14U G21U A25G G44C C45A	0.06
A14U G35C A41G	0.15
A14U U32C G40C	0.03
C15A G17C C45U C46A	0.04
A14U G27U U34G G35U C37A	0.08
C15A G17A G21U	0.01
C15A C23U A24C	0.03
A14U U34G C45U	0.29
C15A C37U G40U	0.1
C15A A24C U28G G29C	0.04
C15A C23G G29A G40U	0.02
A14U C18U G29A G33U	0.05
A14U A24U G44C	0.06
C15A G21U A26U G35C C46A	0.03
A14G U38C U43G	0
A14U C15A C18A C31G A39C	0.02
A14U A26C A41C U43A C46U	0.04
A14U U20G C42U C46U	0.02
C15A G35A G36A	0.06
C15A A26U C45U	0.03
C15A C23A C42A	0.07
A14U A24U G27C	0.48

Variant	self-cleavage
A14U C31A C42A	0.05
C15A G17U C37U	0
C15A A16G C18U G40A	0.02
A14U A16U A24U	0.03
C15A G40A C46G	0.03
A14U G21A U32A	0.05
A14U G21U G27U	0.15
A14U C18A G19U C37U G40C	0.02
C15A G21U G36A G44A	0.23
C15A G29A U34A C37G G40U	0.02
C15A U20A U38A C45A	0.01
A14U C18A G30C U38A	0.09
A14U A24U G36U	0.03
A14U C15A U28G G33C C37U	0.01
C15A G30A G36A	0.1
A14U G21A C46A	0.19
C15A G27A G40A G44C	0.03
C15A G27U U28G A41C G44C	0.03
A14U A25U G33U	0.06
A14U C15G G29A G40U	0.01
A14U C15A G27C G29C	0.13
C15A G35C C42U	0
C15A G35C C42G	0.04
A14U C15U U38G	0.04

Variant	self-cleavage
A14U A26C G27U G33C G40A C42G	0.02
A14U G17U G33U	0.03
A14U U32G C37U C42U	0
A14U G22U A41U	0.15
A14U A16U G19U	0.05
A14U C23A G35U	0.07
C15A C18A G19A	0.03
C15A C23U G30C	0.09
A14U G21A A41U	0.15
C15A G36A A41U	0.04
A14U C15U G29A C31G	0.02
A14U G22U G30C	0.12
C15A U20A G21C	0.15
C15A C23U G40A C45U	0.03
C15A G17A G19U U20A G22C	0.1
C15A A16U C23U	0.1
A14U C15U A16C	0.07
A14U G29U U34G G40U C42A	0.26
A14U C18U U34C	0.02
C15A G40U U43C	0.04
C15A G21A A25G	0.14
A14U A41U U43A	0
C15A A16G G30U	0.17
A14U C18A U34C	0.08

Variant	self-cleavage
C15A G27U G36C A41U	0.09
C15A G27U U28C G30A G35U	0.01
C15A C31A G35U	0.03
A14U G27A C31A G35U	0.09
A14G U38A G44C	0
A14U C15A G21A G27U	0.2
C15A C18G C46G	0.04
A14U G17U U20G G33C	0.01
C15A A26U U28C A39U	0.08
C15A A16C A24G	0.05
A14U C18G A25U G33U	0.17
A14U U20A G21A C31U G40A	0.08
A14U A16C G27U	0.17
A14U A24C U38A	0.07
A14U G19A C31A A41G	0.01
C15A C18U A25C G33A G35A	0.04
C15A G27A U43G	0.07
C15A G27A U43C	0.03
C15A A39C C42A	0.16
A14U C18U G30C	0.03
A14U A26U G30C G44U	0.02
C15A G19A G27U G40U	0.09
A14U A16U G22U A26U G30U U32C	0.2
A14U C15A G33C	0.01

Variant	self-cleavage
A14U G19A U38G A39C	0.01
A14U G19A A25C	0.15
C15A G27U U34C	0.03
A14U A16C U20C C31A U43C	0.02
C15A C18G G27U G36U	0.09
A14U C18A C42U	0.03
C15A C31G U38G	0.02
A14U G40C C46A	0.05
A14U A16U U43A	0.04
C15A G22A G30A	0.07
C15A C23A A24G	0.02
C15A G22U A24G U32A	0
C15A G21A A41G	0.06
A14U C15U C18A U34C C45G	0.02
A14U U20A U34A	1.19
A14U C15A G36U G40A	0.07
C15A G17A C37U C42U	0.03
A14U G27C U34G G44C	0.26
A14U G21U C23A A26U C37U A39C	0.05
A14U C15G U28C	0.02
C15A G22U U38A G40A	0.17
C15A G19U G30A G33A	0.04
C15A G29U G33U A39C	0.04
C15A A41U C46A	0.06

Variant	self-cleavage
C15A A26U U28C G30U	0.08
C15A G35A C46A	0.02
A14U G21U U28C	0.75
C15A A26C G35A	0
A14U C18A A25U C37G	0.2
C15A G21A G22U U28G C42U	0.01
A14U A25U A39U	0.14
C15A G19U G36U	0.08
C15A A25U U32C	0.05
C15A C18G G21U A25G	0.02
C15A A16U G33U C37A A39C C42A	0
C15A G21U U32A	0.01
C15A A16U G40A C46G	0.03
A14U C37A C46U	0.04
C15A G36U U43G	0
A14U U34C U38C	0.1
C15A C18G G35U	0.07
C15A G19A A24C G36C	0.03
C15A A16U G44U	0.01
A14U A16C G30U	0.08
C15A G17A G30A	0.02
A14U U20G G27C A41C	0.03
C15A G30C C42U	0.07
